Results from publication PMC12040169 (PLOS Biology, 2025).
The other results are listed elsewhere or left out.

system: T1, C. trachomatis L2/434/Bu expressing GFP (CTL2-GFP); design: species or system HeLa; C. trachomatis total inclusion area by high-content imaging, normalised to DMSO; settings: total inclusion area; 28.5 h, 10 µM; inhibitor
T1 construct: L2/434/Bu GFP intracellular growth in HeLa cells
In short: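 Host cell viability was gauged from Hoechst-stained nuclei counts, while chlamydial growth was taken from total inclusion area and inclusion number per well. Cells were fixed and imaged by high-content microscopy once bulk GFP and resorufin fluorescence had been measured.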

Compound | % of control remaining
COc1cc(CN2CCOC3(CCN(C(=O)OCc4ccccc4)CC3)C2)cc(OC)c1OC [CBK161104T] | 91.2396
O=C(Cn1nc2n(c1=O)CCCC2)NCc1ccccc1Cl [CBK304647] | 83.8668
CCOC(=O)c1cccc(NS(=O)(=O)c2cc(F)c(Br)cc2F)c1 [CBK034333] | 92.5296
O=C(C1CC1)N1C[C@@H](c2ccsc2)[C@@H]2CN(C3CCCC3)CC[C@@H]21 [CBK283382] | 82.3298
COC(=O)c1c(C)[nH]c(C(=O)CSc2ncnc3sc(C)c(-c4ccccc4)c23)c1C [CBK266004] | 84.142
CC1(C)CC(=O)C2=C(C1)Nc1[nH][nH]c(=O)c1C2c1ccccn1 (stereo not drawn) [CBK288463] | 99.8387
O=C(Cc1ccccc1)N(Cc1ccco1)C1CCN(c2ccc3c(c2)OCCO3)CC1 [CBK286529] | 84.5909
CC(C)NC(=O)NC1CCCc2nc(N3CCC(CO)CC3)ncc21 (stereo not drawn) [CBK307002] | 103.838
O=C(Cn1ccc(=O)[nH]c1=O)NCc1ccc(OCC(F)(F)F)cc1 [CBK305041] | 49.6367
Cc1c(C#N)sc(-c2nc[nH]n2)c1C [CBK005952] | 73.4006
Cc1n[nH]c(C)c1CCC(=O)N/N=C\c1cccc(Oc2ccccc2)c1 [CBK263384] | 88.9308
CCC(=O)NCCc1cc2ccc(C)cc2[nH]c1=O [CBK287434] | 124.803
COCOc1ccc(-c2nccnc2OCCN2C(=O)c3ccccc3C2=O)cc1 [CBK106913] | 78.8397
CC(=O)c1ccc(NC(=O)[C@@]2(CC(=O)O)CC(c3ccc(F)cc3)=NO2)cc1 [CBK286663] | 60.7431
O=C(OCc1nnsc1Cl)c1ccc(C(=O)c2ccccc2)cc1 [CBK297897] | 109.706
CCCNC(=O)c1cc(C2CCCN(Cc3ccccc3)C2)no1 (stereo not drawn) [CBK283388] | 102.091
O=C(O)c1ccc(CNCc2ccc(-c3ccc(F)cc3)o2)cc1 [CBK269622C] | 84.0152
Cc1ccc2[nH]c3c(c2c1)CCOC31CCN(Cc2ccccc2-c2ccccc2)CC1 [CBK039915] | 29.0118
COc1ccc(Br)cc1S(=O)(=O)Nc1nc(C)c(C(=O)O)s1 [CBK045558] | 62.2292
Cc1ccccc1-c1ccccc1CC1(C(=O)N(C)C)CCN(C(=O)CC(C)C)CC1 [CBK285714] | 107.916
Cc1ccc(S(=O)(=O)N(CC(=O)O)c2cccc(Cl)c2)cc1 [CBK262387] | 100.102
